Laboratory results taken from PubChem BioAssay AID588591 (National Center for Advancing Translational Sciences (NCATS), 2011).
The campaign covered roughly 390,000 compounds. About 4,700 (1.2%) were called active. The inconclusive results got no clear call from the source; some entries with a clear call stand among them for comparison. The call rests on the fitted dose curve; in most records, active means well fitted inhibition curve with a large enough effect; inconclusive means small, poorly fitted or top-dose-only effect, or another doubt; inactive means no such curve, though single readings can be large or run the other way. A potency beside an inconclusive call is a rough fit, not a confirmed value.

What follows are compounds tested against DNA polymerase eta (Homo sapiens) (UniProt Q9Y253) (assay: qHTS for Inhibitors of Polymerase Eta). Conditions: recombinant Pol eta, fluorescent DNA replication assay; series mostly up to 114 µM; activity change, negative = inhibition: at the top concentration.
Chain of UniProt Q9Y253 (Q9Y253 whole entry, looked up): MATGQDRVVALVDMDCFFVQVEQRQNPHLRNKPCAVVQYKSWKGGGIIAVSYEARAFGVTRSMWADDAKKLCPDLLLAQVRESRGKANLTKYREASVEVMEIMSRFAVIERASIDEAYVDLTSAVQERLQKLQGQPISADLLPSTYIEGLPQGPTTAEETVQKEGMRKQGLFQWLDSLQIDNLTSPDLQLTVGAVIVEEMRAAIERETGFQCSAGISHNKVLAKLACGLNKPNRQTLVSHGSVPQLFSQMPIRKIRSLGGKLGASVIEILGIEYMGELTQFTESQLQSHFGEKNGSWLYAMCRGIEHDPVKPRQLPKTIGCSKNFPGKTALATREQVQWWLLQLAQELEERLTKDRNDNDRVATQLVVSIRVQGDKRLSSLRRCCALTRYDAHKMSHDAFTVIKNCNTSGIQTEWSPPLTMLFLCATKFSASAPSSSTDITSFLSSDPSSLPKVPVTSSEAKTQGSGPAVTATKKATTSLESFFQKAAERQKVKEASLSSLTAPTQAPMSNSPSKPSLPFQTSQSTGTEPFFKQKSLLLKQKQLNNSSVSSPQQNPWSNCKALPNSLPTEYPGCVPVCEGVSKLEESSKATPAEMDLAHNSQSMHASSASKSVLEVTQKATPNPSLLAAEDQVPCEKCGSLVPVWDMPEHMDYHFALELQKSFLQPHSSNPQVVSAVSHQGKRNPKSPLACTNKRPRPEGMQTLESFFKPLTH
Method in brief: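 Pol eta at 10 nM preincubated with compounds 15 min at room temperature; reaction started with fluorescent substrate (50 nM final) and read kinetically at 0 and 10 min.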
On the % scale 0 is the no-effect control and ±100 the full control effect; potency means the concentration at half of the fitted maximal effect; tags describe the fitted curve by direction and shape.

| SMILES | Potency | activity change, negative = inhibition |
| --- | --- | --- |
| Cc1ccc2nc(SCc3nc4ccccc4c(=O)[nH]3)[nH]c2c1 | inconclusive: 79.4 µM [inhibitor, partial curve, poor fit] |  |
| O=C1N(c2cccc(Cl)c2)C(c2ccccc2)N2CCCN12 (stereo not drawn) | inconclusive: 89.1 µM [inhibitor, partial curve, poor fit] |  |
| Cc1ccc(S(=O)(=O)Nc2nc3n(n2)C(c2ccc(F)cc2)C=C(c2ccccc2)N3)cc1 (stereo not drawn) | inconclusive: 100 µM [inhibitor, single point] |  |
| Nc1c(N2CCCC2)cc(Cl)c2nonc12 | active: 22.4 µM |  |
| COc1cccc(/C=N/Nc2ccc(S(=O)(=O)Nc3ccccc3C(=O)O)cc2[N+](=O)[O-])c1O | active: 17.8 µM |  |
| Cc1cc(Cl)ccc1OCCCC(=O)NCCN1C(=O)S/C(=C\c2cccnc2)C1=O | inconclusive: 22.4 µM [inhibitor, full curve, poor fit] |  |
| Cc1nnc(SCC(=O)NNC(=O)c2ccco2)s1 |  | inactive: -9.61% |
| Cc1oc2cc3oc(=O)c(CC(=O)N[C@@H](C)C(=O)NC(Cc4ccc(Cl)cc4)C(=O)O)c(C)c3cc2c1C (stereo partly drawn) |  | inactive: -14% |
| COc1ccc(NC(=S)N(CCC(C)C)C2CCN(C(C)=O)CC2)cc1 | inconclusive: 89.1 µM [inhibitor, single point] |  |
| CCCCNC(=O)CNC(=O)c1nn(-c2ccc(OC)c(Cl)c2)c(=O)c2ccccc12 | inconclusive: 3.55 µM [inhibitor, partial curve, poor fit] |  |
| CCOC(=O)C1(CCOc2ccccc2)CCN(Cc2ccc3nonc3c2)CC1 | inconclusive: 79.4 µM [inhibitor, partial curve, poor fit] |  |
| COc1cccc2cc(C(=O)C3=C(O)C(=O)N(CCN4CCOCC4)C3c3cccc(Cl)c3)oc12 (stereo not drawn) | active: 28.2 µM |  |
| CCc1cccc(C)c1NC(=O)C1CCN(S(=O)(=O)c2c(C)noc2/C=C/c2c(C)cc(C)cc2C)CC1 | inconclusive: 100 µM [inhibitor, partial curve, poor fit] |  |
| CC(=O)Nc1ccc(S(=O)(=O)NCCC(=O)OCC(=O)N2CCN(C(=O)c3ccco3)CC2)cc1 | inconclusive: 15.8 µM [inhibitor, full curve] |  |
| CCOC(=O)c1ccc(NC(=O)CSc2nc(-c3ccc(OC)cc3)cc(C(F)(F)F)c2C#N)cc1 |  | inactive: -13.5% |
| Cc1ccc(CC(=O)CCc2ccccc2)cc1 |  | inactive: -21.9% |
| O=c1cc(-c2ccco2)nc(-c2cccs2)o1 | inconclusive: 28.2 µM [inhibitor, partial curve, poor fit] |  |
| CCOC(=O)CSC(=S)NC(=O)c1ccc(OC)cc1 |  | inactive: 4.95% |
